# Source: the RNAGym collection of RNA variant scans (doi:10.7554/elife.90254)
# The source gives no read counts; variants with many changes may rest on few reads.
# B1: LINE1-mini (parent)
# chain: GGCAGAGCUCAACACAGCGUGGCAAAGUGGCUGUGGCUAGACUGCC
# Variants of: B1
# Test: self-cleavage, relative activity (ratio to wild type); higher = more cleavage; in vitro, sequencing; the parent is a self-cleaving ribozyme
row,Variant,self-cleavage
1,GGGAGAGCUCAACACAGCGUGGCAAAGUGCCUGUGGAUAGACUGCA,0.83
2,GGGAGAGCUCAACACAGCGUGGCAAAGUGUCUGUGGUUAGACUGCC,2.33
3,GGGAGAGCUCAACACAGCGUGGCAAAGUGGCUAUGGCUAGAUUGCA,0.09
4,GGGAGAGCUCAACACAGCGUGGCAAAGUGGCUUUGGCUAGAUUGCC,0.06
5,GGGAGAGCACAACACAGGUUGGUAACGUGGCUGUGGCUAGACUGCC,0.03
6,GGGAGAGCACAACACAACGUGGCAAAGUGGCUGUGGCUAGACUGCC,0.18
7,GGGAGAGCACAACACAGCGUGGCAAAGGGGGUGUGGCUAGACUGCC,0.32
8,GGGAGAGCCCAACACAGCGUGGCACAAUGGCUGUGGCUAGACUGCC,0.02
9,GGGAGAGCCCAAUACCGCGUGGCAAAGUCGCUGUGGCUAGACUGCC,0.01
10,GGGAGAGCCCAACACAGCGUGGCAAAGUGGCUGGGGCUAGACUGCC,0.01
11,GGGAGAGCGCGACACAGCGUGGCAAAGUGGCUGUGGCUAGACUGCC,0.18
12,GGGAGAGCGCAACACAGUGUGGCAAAGUGGGUGUGGCUAGACUGCC,0.06
13,GGGAGAGCGCAACACAGCGUGGUAAACUGGCUGUGGCUAGACUGCC,0.98
14,GGGAGAGCGCAACACAGCGUUGCAAAGUGGCUGUGGCUAGACUGCG,0.16
15,GGGAGAGCUCAACACAGCGAGGCAAAGUGGCUGUGGCAAGACUCCC,0.16
16,GGGAGAGCUCAACACAGCGCGGCAAAGUGGCUGUGGCUAGACUGCA,0.95
17,GGGAGAGCUCAACACAGCGCGGCAAAGUGGCUUUGGCUAGUCUGCC,0.27
18,GGGAGAGCUCAACACAGCGCGGCAAAGUGGCUGUCGCUAGACUGCC,0.1
19,GGGAGAGCUCAACACAGCGGGGCAUAGUGGCUGUGGCUAGACUCCC,0.78

row,Variant,self-cleavage
1,GGGAGAGCUCAACACAGCGUGGCAAAGGGGCCAUGGCUAGACUGCC,0.04
2,GGGAGAGCUCAACACAGCGUGGCAAAGUGGCUGUGGCAAGUCUGCC,0.13
3,GGUCGUGCUCAUCACAGCGUGGCAAAGUGGCUGCGGCUAGACUGCC,0.04
4,GGUCGAGCUCAUCACAGCGUGGCAAAGUGGCUGUGGCUAGAAUGCC,0.13
5,GGUCGAGCUCAACACAGCGUGGCACAGUGGCUGUGGCUACACUCCC,0.03
6,GGUCGAGCUCAAUACAGCGUGGCAAAGUGGGUGUGGCUAGACUGCC,0.07
7,GGUCGAGCUCAACACAGCGUGGCAAAGUGGCUGUGGCUAGAGUGCC,0.16
8,GGUCAAGCCCAACGCAGCGUGGCAAAGUGGCUGUGGCUAGACUGCC,0.03
9,GGUCGAACUCCAGACAGCGUGGCAAACUGGCUGUGGCUAGACUGCC,0.02
10,GGUCGAACUCAACACAGCGUGGUAAAGUGGCUGUGGCUAGACUGCC,0.44
11,GGUCGACCUCAAGACAGCUUGGCAAGGUGGCUGUGGCUAGACUGCC,0.05
12,GGUCGAGCUCAACACACCGUGGCAAAGUGGCUGUUGCUAGACUGCC,0.03
13,GGUCGAGCUCAACACAUCGUGGCAAAGGGGCUGUGGCUAGACUGCC,0.03
14,GGUCGAGCACAACACAGGGUGGCAAUGUGGCUUUGGCUAGACUGCC,0.08
15,GGUGGAGCUCCACACAGCGUCGCAAAGUGGCUGUUGCUAGACUGCU,0.02
16,GGUGGAGCUCAACACUGCGUGGCAAAGUGGCUGCGGCUGGACUGCC,0.19
17,GGUGGAGCUCAACACAGCGUGGCUAAGUGGCUGUGGCUAGACUGCC,0.15
18,GGUGGAGCUCAACACAGCGUGGCAAAGUGGCUGUGGCUACACUGCC,0.03
19,GGUUGCGCCCAACACAGCGUGGCAAAGUGGCUGUGGCUAGACUGCC,0.07

row,Variant,self-cleavage
1,GGUUGAGCUCCAAACAGCGUGGCAAAGUGGCUGUGGCUAGACUUCC,0.02
2,GGUUGAGCUCGACACAGGCUGGCAAAGUGGAUGUGGCUAGACUGCC,0.02
3,GGUUGAGCUCAACACAGCGUGGCUAAGUGGCUGCGGCUAGACUGCC,0.01
4,GGUUGAGCUAAACACAGCAUUGAAAAGUGGCAGUGGCUAGACUGCC,0.01
5,GGUUGAGCUUAACACAGCGUGGCAAAGUGGCUGUGGCUAGACUGCC,0.24
6,GGUUGAGCUCAAAACAGCGUGGCAAAGUGGCGGUGACUAGACUGCC,0.07
7,GGUUGAGCUCAACACAGAGGGGCAAAGUGGCUGUGCCUAGAAUGCC,0.03
8,GGUUGAUCGCAACACAGGGUGGCAAACUUGCUCUGGCUAGACUACC,0.2
9,GGUUGAGCGCAACACAGCGUGACAAAGUCGCUGUGGCUAGACUGCC,0.03
10,GGUAGCGCUCAGCACAGCGUGGCAAAGUGUCUGUGGCUAGACUGCC,0
11,GGUAGCGCUCAUCACAGCGUGGCAAAGUGGCUGUGGCUAGAGUGCC,0.03
12,GGUAGCGCUCAACACAGCGUGGGAAAGUGGUUGUGUCUAGACAGCC,0.03
13,GGUAGCGCUCAACACAGCGUGGCAAAGUGGAUGUGGCUAGACUGCC,0.08
14,GGUAGCGCUCAACACAACGUGGCUAAGUGGCUGUAUCUAGACUGCC,0.03
15,GGUAGCGCUCAACACAGCGUGAUAAAGUGGCUGUGGCUAGACUGCC,0.09
16,GGUAGCGCUCAACACAGCGUGCAAAUGGGGCGGUGGCUAGACUGCU,0.01
17,GGUAGCGCUCAACACAGCGUGGCAAAGUGGCUGUGGCUACACUGCC,0.04
18,GGUAGCGCUCAACACAGCGAGGCAAAAUGGCUGUGGCUAGACUGCC,0.49
